{"source": "PubChem BioAssay AID1963973", "about": "(Molecular Pharmacology Branch, DTP, NCI, 2024)", "tested_on": "883617-216-R-J1-PDC tumor spheroids, viability", "experiment": "Anticancer human tumor 883617-216-R-J1-PDC patient-derived bladder carcinoma cell line growth inhibition [PI3K]", "settings": "spheroids with HUVEC and MSC; for IC50: compound alone; for viability, T/C: stronger effect = lower value", "from_the_text": "Combinatorial screen of targeted agents with the PI3K inhibitors inavolisib, alpelisib, duvelisib, and copanlisib in multi-cell type tumor spheroids\nA high-throughput screen of multi-cell type tumor spheroids was designed to identify active combinations of targeted small molecules and PI3K pathway inhibitors. Complex spheroids include a stromal component modeled by human endothelial cells (HUVEC) and fibroblasts modeled by human mesenchymal stem cells (MSCs). The concentration ranges selected for each drug and investigational agent were based upon clinically achievable concentrations if the clinical Cmax of the agent was known.\nCompounds. The drugs and investigational agents: inavolisib (NSC800729), alpelisib (NSC765974), duvelisib (NSC772469), copanlisib (NSC816437), ipatasertib (NSC767898), afuresertib (NSC778305), talazoparib (NSC767125), sapanisertib (NSC764658), selumetinib (NSC741078), tovorafenib (DAY101, NSC766906), vemurafenib (NSC761431), ravoxertinib (NSC781343), sotorasib (NSC818433), MRTX1133 (NSC 836407), abemaciclib (NSC 768073), palbociclib (NSC758247), venetoclax (NSC 766270), SY5609 (NSC837396), enzalutamide (NSC755605), and darolutamide (NSC825331), were obtained from the National Cancer Institute (NCI) Developmental Therapeutics Program Chemical Repository. The FDA-approved anticancer drug set is available from the NCI Developmental Therapeutics Program. […] The stock solutions were prepared in dimethyl sulfoxide (DMSO, Sigma-Aldrich, St. Louis, MO, cat. D2650) at 800-fold the tested concentration and stored at -70 degrees C prior to their use. All drugs and investigational agents were tested over a range starting from a high concentration at or near the clinical Cmax and decreasing in half-log increments. If the clinical Cmax for an agent had not been determined, the highest concentration tested was 10 microM.\nCell Culture. All cells were maintained in an incubator at 37 degrees C and 5% CO2 with 95% humidity. The PDC lines were cultured according to standard operating procedures established by the NCI PDMR (https://pdmr.cancer.gov/sops/default.htm). All PDCs were thawed and cultured in Matrigel-coated flasks prepared with a working solution of 1X Ham's F-12 nutrient mix, without supplementation (Invitrogen, Waltham, MA, cat. 11765054), 100 U/mL penicillin-streptomycin (Invitrogen, cat. 15140122), and 2.5% Matrigel (Corning Inc., Corning, NY, cat. 354248) for the first three passages. The 354836-022-R-J1-PDC, 475296-252-R-J1-PDC, and 997726-040-R-J2-PDC lines were cultured in 6A media, which includes advanced DMEM/F-12 (Thermo Fisher Scientific, cat. 12634028), 10 mM HEPES (Thermo Fisher Scientific, cat. 15630080), 1X GlutaMAX supplement (Thermo Fisher Scientific, cat. 35050061), 0.1 mg/mL primocin (InvivoGen, San Diego, CA, cat. ant-pm-2), 10% defined fetal bovine serum, heat inactivated (HyClone Laboratories Inc., Logan, UT, cat. SH30070.03HI), 50% L-WRN conditioned media (ATCC, cat. CRL-3276), 1.25 mM N-Acetyl-L-cysteine (Sigma-Aldrich, cat. A9165), 10 mM nicotinamide (Sigma-Aldrich, cat. N0636), 1X B-27 supplement (Thermo Fisher Scientific, cat. 17504044), 1X N-2 supplement (Thermo Fisher Scientific, cat. 17502048), and 10 microM Y-27632 dihydrochloride (Tocris Bioscience, Bristol, United Kingdom, cat. 1254). The 624824-186-R-J2-PDC line was cultured in 6C/Colon 1B media, which includes all 6A media components plus 50 ng/mL human EGF recombinant protein (Thermo Fisher Scientific, cat. PHG0311). […]", "note": "Some entries of the source have several records that differ or are many. This is not the full list of results. The source may hold further records. Values that stand side by side are repeated measurements across runs, samples, wells, individuals or studies.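 Note: spheroids exposed to agents for 7 days before the viability read.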", "data": [{"smiles": "CCN1CCN(Cc2ccc(Nc3ncc(F)c(-c4cc(F)c5nc(C)n(C(C)C)c5c4)n3)nc2)CC1", "values": [{"measurement": "IC50", "result": "223 nM, 270 nM, > 1 µM, 492 nM"}]}, {"smiles": "CC(Nc1ncnc2nc[nH]c12)c1cc2cccc(Cl)c2c(=O)n1-c1ccccc1", "note": "(configuration not stated)", "values": [{"measurement": "IC50", "setting": "run of 04/25/2023", "result": "> 10 µM, 5.19 µM, 7.96 µM, 8.19 µM"}]}, {"smiles": "CC1(C)CCC(CN2CCN(c3ccc(C(=O)NS(=O)(=O)c4ccc(NCC5CCOCC5)c([N+](=O)[O-])c4)c(Oc4cnc5[nH]ccc5c4)c3)CC2)=C(c2ccc(Cl)cc2)C1", "values": [{"measurement": "viability, T/C", "setting": "compound alone 0.1 µM", "result": "96, 69.6, 85.8, 83%"}, {"measurement": "viability, T/C", "setting": "compound alone 0.316 µM", "result": "118, 102, 88.9, 88.4%"}, {"measurement": "viability, T/C", "setting": "compound alone 10 µM", "result": "3.72, 3.92, 54, 91.1%"}]}, {"smiles": "C=CC(=O)N1CCN(c2nc(=O)n(-c3c(C)ccnc3C(C)C)c3nc(-c4c(O)cccc4F)c(F)cc23)C(C)C1", "note": "(configuration not stated)", "values": [{"measurement": "IC50", "result": "31.6 nM and > 10 µM"}]}, {"smiles": "CCCS(=O)(=O)Nc1ccc(F)c(C(=O)c2c[nH]c3ncc(-c4ccc(Cl)cc4)cc23)c1F", "values": [{"measurement": "viability, T/C", "setting": "compound alone 1 µM", "result": "90.2, 87, 84.2, 111%"}]}, {"smiles": "CC(Cn1ccc(-c2ccc(C#N)c(Cl)c2)n1)NC(=O)c1cc(C(C)O)[nH]n1", "note": "(configuration not stated)", "values": [{"measurement": "viability, T/C", "setting": "compound alone 0.0316 µM", "result": "88.5, 103, 114, 105%"}]}, {"smiles": "C[C@@H](NC(=O)c1ncnc(N)c1Cl)c1ncc(C(=O)Nc2cc(C(F)(F)F)c(Cl)cn2)s1", "values": [{"measurement": "viability, T/C", "setting": "compound alone 0.0316 µM", "result": "97.5, 80.8, 101, 112%"}]}, {"smiles": "Cn1ncc(Cl)c1-c1cc(C(=O)NC(CN)Cc2cccc(F)c2)sc1Cl", "note": "(configuration not stated)", "values": [{"measurement": "viability, T/C", "setting": "compound alone 10 µM", "result": "4.88, 85.5, 5.74, 6.65%"}]}, {"smiles": "CNC(=O)c1ccc(N2C(=S)N(c3ccc(C#N)c(C(F)(F)F)c3)C(=O)C2(C)C)cc1F", "values": [{"measurement": "viability, T/C", "setting": "compound alone 0.1 µM", "result": "101, 70.9, 90, 99%"}, {"measurement": "viability, T/C", "setting": "compound alone 10 µM", "result": "81.7, 67.3, 92.5, 75.3%"}]}]}
